Experimental data taken from patent publication CN115594767A (CRYSTAL ORIGIN BIOMEDICAL SUZHOU CO LTD, dated 2023).

Biological target: CD16A-158V (UniProt P08637 part only)
Assay: BLI, CD16A-158V on anti-his probe, antibody as analyte

Chain of CD16A-158V (P08637 17-208 F176V limits assumed): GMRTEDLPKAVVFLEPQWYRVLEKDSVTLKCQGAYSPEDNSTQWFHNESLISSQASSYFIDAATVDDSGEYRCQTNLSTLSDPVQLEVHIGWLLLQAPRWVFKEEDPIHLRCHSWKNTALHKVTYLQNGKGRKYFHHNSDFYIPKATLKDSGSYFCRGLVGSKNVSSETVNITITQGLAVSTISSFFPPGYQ

B1: JY004 (bispecific antibody, human IgG1, kappa)
heavy: [no letters for about 120 residues]GGGGSGGGGSEVQLVESGGGLVQPGGSLRLSCAASGFTFTDYTMDWVRQAPGKGLEWVADVNPNSGGSIYNQRFKGRFTLSVDRSKNTLYLQMNSLRAEDTAVYYCARNLGPSFYFDYWGQGTLVTVSSASTKGPSVFPLAPSSKSTSGGTAALGCLVKDYFPEPVTVSWNSGALTSGVHTFPAVLQSSGLYSLSSVVTVPSSSLGTQTYICNVNHKPSNTKVDKKVEPKSCDKTHTCPPCPAPELVGGPSVFLLPPKPKDTLMISRTPEVTCVVVDVSHEDPEVKFNWYVDGVEVHNAKTKPPEEQYNSTLRVVSVLTVLHQDWLNGKEYKCKVSNKALPAPIEKTISKAKGQPREPQVYTLPPSREEMTKNQVSLTCLVKGFYPSDIAVEWESNGQPENNYKTTPLVLDSDGSFFLYSKLTVDKSRWQQGNVFSCSVMHEALHNHYTQKSLSLSPGK
light: [no letters for about 100 residues]GGGGSGGGGSDIQMTQSPSSLSASVGDRVTITCKASQDVSIGVAWYQQKPGKAPKLLIYSASYRYTGVPSRFSGSGSGTDFTLTISSLQPEDFATYYCQQYYIYPYTFGQGTKVEIKRTVAAPSVFIFPPSDEQLKSGTASVVCLLNNFYPREAKVQWKVDNALQSGNSQESVTEQDSKDSTYSLSSTLTLSKADYEKHKVYACEVTHQGLSSPVTKSFNRGEC
notes: also called 本发明的抗体; 靶向HER2的双特异性抗体
- Kd: 77.8 nM
- koff: 0.0277 s⁻¹
- kon: 357000 M⁻¹ s⁻¹
